Data as given in the supplement of paper PMC11741623.
The list shows a part of the results. Interaction screen of human proteins with wild-type SARS-CoV-2 proteins by split-DHFR complementation in yeast, 1 µg/mL methotrexate. Value = fitness of the pair (three or more lineages) minus that of the viral protein without a human partner, on a scale set by negative (0) and fused positive (1) controls, mean of up to three cultures; higher = more likely to interact. Active = false discovery rate below 0.05 (one-sided t-test) in at least one culture. Nearly all pairs are not hits, and differences among them are mostly noise (correlation between cultures about 0.3); most hits were seen in one culture only. Human sequences are the Swiss-Prot entries looked up by gene name; the clone may be another isoform. NSP2 values were corrected by the authors for a growth advantage. Listed are human proteins with a hit and a random twelfth of the others.

What was measured:
Test in all cases: yeast fitness gain over the viral ORF with no human partner (scaled fitness); higher = more likely to interact
SARS-CoV-2 M = biological target: SARS-CoV-2 M
Method: (§1)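 Split mouse DHFR complementation in pooled diploid yeast: human ORFeome clones carry one fragment and viral ORFs the other; barcoded lineages compete in 1 µg/mL methotrexate and fitness is read by barcode sequencing in up to three cultures.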

SARS-CoV-2 NSP10 = biological target: SARS-CoV-2 NSP10
Method: as §1

SARS-CoV-2 NSP12 = biological target: SARS-CoV-2 NSP12
Method: as §1

SARS-CoV-2 NSP13 = biological target: SARS-CoV-2 NSP13
Method: as §1

SARS-CoV-2 NSP16 = biological target: SARS-CoV-2 NSP16
Method: as §1

SARS-CoV-2 NSP2 = biological target: SARS-CoV-2 NSP2
Method: as §1

SARS-CoV-2 NSP5 = biological target: SARS-CoV-2 NSP5
Method: as §1

SARS-CoV-2 NSP7 = biological target: SARS-CoV-2 NSP7
Method: as §1

SARS-CoV-2 NSP8 = biological target: SARS-CoV-2 NSP8
Method: as §1

SARS-CoV-2 NSP9 = biological target: SARS-CoV-2 NSP9
Method: as §1

SARS-CoV-2 ORF10 = biological target: SARS-CoV-2 ORF10
Method: as §1

SARS-CoV-2 ORF3B = biological target: SARS-CoV-2 ORF3B
Method: as §1

SARS-CoV-2 ORF6 = biological target: SARS-CoV-2 ORF6
Method: as §1

SARS-CoV-2 ORF7B = biological target: SARS-CoV-2 ORF7B
Method: as §1

SARS-CoV-2 ORF8 = biological target: SARS-CoV-2 ORF8
Method: as §1

SARS-CoV-2 ORF9B = biological target: SARS-CoV-2 ORF9B
Method: as §1

[1] = biological target: SARS-CoV-2 ORF9Bwu (the 73-codon ORF)
Method: as §1

SARS-CoV-2 S = biological target: SARS-CoV-2 S
Method: as §1

SARS-CoV-2 NSP1 = biological target: SARS-CoV-2 NSP1
Method: as §1

SARS-CoV-2 NSP15 = biological target: SARS-CoV-2 NSP15
Method: as §1

SARS-CoV-2 NSP6 = biological target: SARS-CoV-2 NSP6
Method: as §1

SARS-CoV-2 ORF3A = biological target: SARS-CoV-2 ORF3A
Method: as §1

SARS-CoV-2 ORF7A = biological target: SARS-CoV-2 ORF7A
Method: as §1

Measured: yeast fitness gain

B1: FAM161A, Q3B820 (protein)
chain: MATSHRVAKLVASSLQTPVNPITGARVAQYEREDPLKALAAAEAILEDEEEEKVAQPAGASADLNTSFSGVDEHAPISYEDFVNFPDIHHSNEEYFKKVEELKAAHIETMAKLEKMYQDKLHLKEVQPVVIREDSLSDSSRSVSEKNSYHPVSLMTSFSEPDLGQSSSLYVSSSEEELPNLEKEYPRKNRMMTYAKELINNMWTDFCVEDYIRCKDTGFHAAEKRRKKRKEWVPTITVPEPFQMMIREQKKKEESMKSKSDIEMVHKALKKQEEDPEYKKKFRANPVPASVFLPLYHDLVKQKEERRRSLKEKSKEALLASQKPFKFIAREEQKRAAREKQLRDFLKYKKKTNRFKARPIPRSTYGSTTNDKLKEEELYRNLRTQLRAQEHLQNSSPLPCRSACGCRNPRCPEQAVKLKCKHKVRCPTPDFEDLPERYQKHLSEHKSPKLLTVCKPFDLHASPHASIKREKILADIEADEENLKETRWPYLSPRRKSPVRCAGVNPVPCNCNPPVPTVSSRGREQAVRKSEKERMREYQRELEEREEKLKKRPLLFERVAQKNARMAAEKHYSNTLKALGISDEFVSKKGQSGKVLEYFNNQETKSVTEDKESFNEEEKIEERENGEENYFIDTNSQDSYKEKDEANEESEEEKSVEESH
inactive: SARS-CoV-2 M 0.00154 | SARS-CoV-2 NSP10 = -0.0423 | SARS-CoV-2 NSP12 = 0.00733 | SARS-CoV-2 NSP13 = -0.434 | SARS-CoV-2 NSP16 = -0.0498 | SARS-CoV-2 NSP2 = -0.171 | SARS-CoV-2 NSP5 = -0.0243 | SARS-CoV-2 NSP7 = -0.0826 | SARS-CoV-2 NSP8 = -0.0669 | SARS-CoV-2 NSP9 = -0.0459 | SARS-CoV-2 ORF10 = 0.00872 | SARS-CoV-2 ORF3B 0.0692 | SARS-CoV-2 ORF6 = -0.0422 | SARS-CoV-2 ORF7B -0.203 | SARS-CoV-2 ORF8 = -0.0602 | SARS-CoV-2 ORF9B 0.0197 | [1] 0.0672 | SARS-CoV-2 S -0.128

B2: KIAA0355, O15063 (protein)
chain: MYCCSAQDSKMDYKRRFLLGGSKQKVQQHQQYPMPELGRALSAPLASTATTAPLGSLTAAGSCHHAMPHTTPIADIQQGISKYLDALNVFCRASTFLTDLFSTVFRNSHYSKAATQLKDVQEHVMEAASRLTSAIKPEIAKMLMELSAGAANFTDQKEFSLQDIEVLGRCFLTVVQVHFQFLTHALQKVQPVAHSCFAEVIVPEKKNSGSGGGLSGMGHTPEVEEAVRSWRGAAEATSRLRERGCDGCLAGIEVQQLFCSQSAAIPEHQLKELNIKIDSALQAYKIALESLGHCEYAMKAGFHLNPKAIEASLQGCCSEAEAQQTGRRQTPPQPMQCELPTVPVQIGSHFLKGVSFNESAADNLKLKTHTMLQLMKEAGCYNGITSRDDFPVTEVLNQVCPSTWRGACKTAVQLLFGQAGLVVVDTAQIENKEAYAPQISLEGSRIVVQVPSTWCLKEDPATMSLLQRSLDPEKTLGLVDVLYTAVLDLNRWRAGREQALPCIQIQLQREICDFGNQADLPSGNGNKSSGGLQKTFSKLTSRFTKKASCTSSSSSTNYSIQNTPSKNIFIAGCSEEKAKMPGNIDTRLQSILNIGNFPRTTDPSQSAQNSSNTVANGFLMERRENFLHGDDGKDEKGMNLPTDQEMQEVIDFLSGFNMGQSHQGSPLVTRHNSAATAMVTEQKAGAMQPQQPSLPVPPPPRAPQAGAHTPLTPQPGLAPQQQSPKQQQPQVQYYQHLLQPIGPQQPPPQPRAPGKWVHGSSQQPAQAVGAGLSPLGQWPGISDLSSDLYSLGLVSSYMDNVMSEVLGQKPQGPRNNTWPNRDQSDGVFGMLGEILPFDPAVGSDPEFARYVAGVSQAMQQKRQAQHGRRPGNPRGNWPPMDDAHRTWPFPEFFTEGDGLHGGWSGAQGDSASSSDETSSANGDSLFSMFSGPDLVAAVKQRRKHSSGEQDTSTLPSPPLLTTVEDVNQDNKTKTWPPKAPWQHPSPLPSTLPSPSAPLYAVTSPGSQWNDTMQMLQSPVWAATNDCSAAAFSYVQTPPQPPPPPAHKAAPKGFKAFPGKGERRPAYLPQY
inactive: SARS-CoV-2 M 0.0763 | SARS-CoV-2 NSP1 = 0.0241 | SARS-CoV-2 NSP10 = 0.0484 | SARS-CoV-2 NSP12 = 0.095 | SARS-CoV-2 NSP13 = 0.0157 | SARS-CoV-2 NSP15 = 0.0114 | SARS-CoV-2 NSP16 = -0.00556 | SARS-CoV-2 NSP2 = -0.101 | SARS-CoV-2 NSP5 = -0.0415 | SARS-CoV-2 NSP6 = -0.00775 | SARS-CoV-2 NSP7 = -0.0585 | SARS-CoV-2 NSP8 = -0.12 | SARS-CoV-2 NSP9 = -0.00865 | SARS-CoV-2 ORF10 = 0.056 | SARS-CoV-2 ORF3A -0.081 | SARS-CoV-2 ORF3B -0.0234 | SARS-CoV-2 ORF6 = -0.031 | SARS-CoV-2 ORF7A 0.0782 | SARS-CoV-2 ORF7B 0.0476 | SARS-CoV-2 ORF8 = -0.0327 | SARS-CoV-2 ORF9B 0.0731 | [1] -0.00913 | SARS-CoV-2 S 0.00105

B3: LAMA4, Q16363 (protein)
chain: MALSSAWRSVLPLWLLWSAACSRAASGDDNAFPFDIEGSSAVGRQDPPETSEPRVALGRLPPAAEKCNAGFFHTLSGECVPCDCNGNSNECLDGSGYCVHCQRNTTGEHCEKCLDGYIGDSIRGAPQFCQPCPCPLPHLANFAESCYRKNGAVRCICNENYAGPNCERCAPGYYGNPLLIGSTCKKCDCSGNSDPNLIFEDCDEVTGQCRNCLRNTTGFKCERCAPGYYGDARIAKNCAVCNCGGGPCDSVTGECLEEGFEPPTGMDCPTISCDKCVWDLTDDLRLAALSIEEGKSGVLSVSSGAAAHRHVNEINATIYLLKTKLSERENQYALRKIQINNAENTMKSLLSDVEELVEKENQASRKGQLVQKESMDTINHASQLVEQAHDMRDKIQEINNKMLYYGEEHELSPKEISEKLVLAQKMLEEIRSRQPFFTQRELVDEEADEAYELLSQAESWQRLHNETRTLFPVVLEQLDDYNAKLSDLQEALDQALNYVRDAEDMNRATAARQRDHEKQQERVREQMEVVNMSLSTSADSLTTPRLTLSELDDIIKNASGIYAEIDGAKSELQVKLSNLSNLSHDLVQEAIDHAQDLQQEANELSRKLHSSDMNGLVQKALDASNVYENIVNYVSEANETAEFALNTTDRIYDAVSGIDTQIIYHKDESENLLNQARELQAKAESSSDEAVADTSRRVGGALARKSALKTRLSDAVKQLQAAERGDAQQRLGQSRLITEEANRTTMEVQQATAPMANNLTNWSQNLQHFDSSAYNTAVNSARDAVRNLTEVVPQLLDQLRTVEQKRPASNVSASIQRIRELIAQTRSVASKIQVSMMFDGQSAVEVHSRTSMDDLKAFTSLSLYMKPPVKRPELTETADQFILYLGSKNAKKEYMGLAIKNDNLVYVYNLGTKDVEIPLDSKPVSSWPAYFSIVKIERVGKHGKVFLTVPSLSSTAEEKFIKKGEFSGDDSLLDLDPEDTVFYVGGVPSNFKLPTSLNLPGFVGCLELATLNNDVISLYNFKHIYNMDPSTSVPCARDKLAFTQSRAASYFFDGSGYAVVRDITRRGKFGQVTRFDIEVRTPADNGLILLMVNGSMFFRLEMRNGYLHVFYDFGFSGGPVHLEDTLKKAQINDAKYHEISIIYHNDKKMILVVDRRHVKSMDNEKMKIPFTDIYIGGAPPEILQSRALRAHLPLDINFRGCMKGFQFQKKDFNLLEQTETLGVGYGCPEDSLISRRAYFNGQSFIASIQKISFFDGFEGGFNFRTLQPNGLLFYYASGSDVFSISLDNGTVIMDVKGIKVQSVDKQYNDGLSHFVISSVSPTRYELIVDKSRVGSKNPTKGKIEQTQASEKKFYFGGSPISAQYANFTGCISNAYFTRVDRDVEVEDFQRYTEKVHTSLYECPIESSPLFLLHKKGKNLSKPKASQNKKGGKSKDAPSWDPVALKLPERNTPRNSHCHLSNSPRAIEHAYQYGGTANSRQEFEHLKGDFGAKSQFSIRLRTRSSHGMIFYVSDQEENDFMTLFLAHGRLVYMFNVGHKKLKIRSQEKYNDGLWHDVIFIRERSSGRLVIDGLRVLEESLPPTEATWKIKGPIYLGGVAPGKAVKNVQINSIYSFSGCLSNLQLNGASITSASQTFSVTPCFEGPMETGTYFSTEGGYVVLDESFNIGLKFEIAFEVRPRSSSGTLVHGHSVNGEYLNVHMKNGQVIVKVNNGIRDFSTSVTPKQSLCDGRWHRITVIRDSNVVQLDVDSEVNHVVGPLNPKPIDHREPVFVGGVPESLLTPRLAPSKPFTGCIRHFVIDGHPVSFSKAALVSGAVSINSCPAA
inactive: SARS-CoV-2 M 0.00946 | SARS-CoV-2 NSP10 = 0.0678 | SARS-CoV-2 NSP12 = -0.0987 | SARS-CoV-2 NSP13 = -0.0591 | SARS-CoV-2 NSP16 = -0.165 | SARS-CoV-2 NSP2 = -0.22 | SARS-CoV-2 NSP5 = -0.0869 | SARS-CoV-2 NSP6 = -0.118 | SARS-CoV-2 NSP7 = 0.0794 | SARS-CoV-2 ORF10 = -0.0274 | SARS-CoV-2 ORF3A -0.00162 | SARS-CoV-2 ORF3B 0.0626 | SARS-CoV-2 ORF6 = -0.0549 | SARS-CoV-2 ORF7B -0.00938 | SARS-CoV-2 ORF8 = -0.098 | SARS-CoV-2 ORF9B 0.0595
